What was measured:
[1] = tested on: SARS-CoV-2 pseudovirus; assay: organism not typed; format: cell-based; conditions: 293T/ACE2 cells, mean ± SD (n = 3)
[2] = tested on: SARS-CoV-2 pseudovirus; assay: microbe, parasite or virus in culture; format: cell-based; conditions: HT1080/ACE2 cells, mean ± SD (n = 3)
[3] = tested on: HT1080/ACE2 cells; conditions: human
[4] = tested on: 293T/ACE2 cells; conditions: human
[5] = tested on: Caco-2 cells (clone C2BBe1); P-gp
[6] = 293T/ACE2, SARS-CoV-2 (WT) pseudovirus
[7] = Severe acute respiratory syndrome-related coronavirus, HT-1080, SARS-CoV-2 pseudovirus

O=C1NC(=S)S/C1=C\c1ccc(-c2ccc(C(=O)O)c(Cl)c2)o1 [Compound 21]
IC50 [1, 6]: > 4 µM | IC50 [2, 7]: > 4 µM

O=C(O)c1cc(-c2ccc(/C=C3\SC(=S)N(C4CCCCC4)C3=O)o2)ccc1Cl [Compound 18]
IC50 [1, 6]: 0.0134 ± 0.0018 µM | IC50 [2, 7]: 0.016 ± 0.0026 µM

CCN1C(=O)/C(=C/c2ccc(-c3cccc(C(=O)O)c3)o2)SC1=S [Compound 13]
IC50 [1, 6]: 0.092 ± 0.024 µM | IC50 [2, 7]: 0.176 ± 0.001 µM

C=CCN1C(=O)/C(=C/c2ccc(-c3cccc(C(=O)O)c3)o2)SC1=S [Compound 17]
IC50 [1, 6]: 0.322 ± 0.06 µM | IC50 [2, 7]: 0.283 ± 0.096 µM

COCCN1C(=O)/C(=C/c2ccc(-c3ccc(Cl)c(C(=O)O)c3)o2)SC1=S [Compound 14]
IC50 [1, 6]: 0.867 ± 0.11 µM | IC50 [2, 7]: 0.86 ± 0.248 µM

N=C1NC(=O)/C(=C/c2ccc(-c3ccc(Cl)c(C(=O)O)c3)o2)S1 [Compound 26]
IC50 [1, 6]: > 4 µM

O=C(O)c1cccc(-c2ccc(/C=C3\SC(=S)N(C4CCCCC4)C3=O)o2)c1 [Compound 25]
IC50 [1, 6]: 0.0363 ± 0.0067 µM | IC50 [2, 7]: 0.039 ± 0.013 µM

O=C1C(=Cc2ccc(-c3ccc(Cl)cc3)o2)SC(=S)N1CCc1ccccc1 [Compound 10, 5-((5-(4-chlorophenyl)furan-2-yl)methylene)-3-phenethyl-2-thioxothiazolidin-4-one]
IC50 [2, 7]: > 2 µM

C#CCN1C(=O)/C(=C/c2ccc(-c3ccc(Cl)c(C(=O)O)c3)o2)SC1=S [Compound 23]
IC50 [1, 6]: > 4 µM | IC50 [2, 7]: > 4 µM

CCN1C(=O)/C(=C/c2ccc(-c3ccc(Cl)c(C(=O)O)c3)o2)SC1=S [Compound 24]
IC50 [1, 6]: 0.111 ± 0.0066 µM | IC50 [2, 7]: 0.175 ± 0.016 µM

O=C1/C(=C/c2ccc(-c3ccccc3)o2)SC(=S)N1CCc1ccccc1 [Compound 16]
IC50 [1, 6]: 0.231 ± 0.062 µM | IC50 [2, 7]: 0.592 ± 0.112 µM

CN1C(=O)/C(=C/c2ccc(-c3cccc(C(=O)O)c3)o2)SC1=S [Compound 27]
CC50 [3]: > 100 µM | IC50 ([1]; SARS-CoV-2 (WT) pseudovirus): 0.2 ± 0.011 µM | CC50 [4]: > 100 µM | IC50 ([2]; SARS-CoV-2 pseudovirus): 0.148 ± 0.085 µM

C=CCN1C(=O)/C(=C/c2ccc(-c3cccc(C(=O)O)c3C)o2)SC1=S [Compound 20]
IC50 [1, 6]: 0.111 ± 0.0035 µM | IC50 [2, 7]: 0.199 ± 0.012 µM

Cc1ccc(-c2ccc(/C=C3\SC(=S)N(CC(C)C)C3=O)o2)cc1C(=O)O [Compound 22]
IC50 [1, 6]: > 4 µM | IC50 [2, 7]: > 4 µM

C=CCN1C(=O)/C(=C/c2ccc(-c3cc(C(=O)O)cc(C(=O)O)c3)o2)SC1=S [Compound 19]
IC50 [1, 6]: > 4 µM | IC50 [2, 7]: > 4 µM

Cc1c(C(=O)O)cncc1-c1ccc(/C=C2\SC(=S)N(CCc3ccccc3)C2=O)o1 [Compound 9]
IC50 [2, 7]: 0.367 ± 0.073 µM

NS(=O)(=O)c1ccc(-c2ccc(/C=C3\SC(=S)N(CCc4ccccc4)C3=O)o2)cc1 [Compound 11]
IC50 [1, 6]: 0.031 ± 0.0002 µM | IC50 [2, 7]: 0.025 ± 0.0002 µM

O=C1NC(=S)S/C1=C\c1ccc(-c2ccc(C(=O)O)cc2)o1 [Compound 28]
IC50 [1, 6]: > 4 µM | IC50 [2, 7]: > 4 µM

CN1C(=O)/C(=C/c2ccc(-c3cccc(C(=O)O)c3)o2)SC1=S [Compound 15]
IC50 [1, 6]: 0.154 ± 0.008 µM | IC50 [2, 7]: 0.166 ± 0.044 µM

O=C1NC(=S)S/C1=C\c1ccc(-c2ccc(Cl)c(C(=O)O)c2)o1 [Compound 12]
IC50 [1, 6]: > 4 µM | IC50 [2, 7]: > 4 µM

O=C(O)c1cc(-c2ccc(/C=C3\SC(=S)N(CCc4ccccc4)C3=O)o2)ccc1Cl [Compound 1, (Z)-2-Chloro-5-(5-((4-oxo-3-phenethyl-2-thioxothiazolidin-5-ylidene)methyl)furan-2-yl)benzoic acid]
P-gp Substrate Classification [5]: Negative
